The values that follow come from ChEMBL document CHEMBL4888484, “Replenishing the malaria drug discovery pipeline: Screening and hit evaluation of the MMV Hit Generation Library 1 (HGL1) against asexual blood stage Plasmodium falciparum ,using a nano luciferase reporter read-out” (2022).

Among all 150,000 compounds or so, about 540 (0.36%) showed an effect of 50% or more. Some of the results follow.

The test system of this assay is Plasmodium falciparum. Description: Primary screen in NF54 nanoGlo assay, in single point, at 2uM, 72h; a lower Z score goes with more inhibition. The format is functional, Erythrocyte. The conditions noted are these: timepoint 72 hour.
As a reminder, the % Inhibition is the relative decrease from the control value, in per cent. As for `CCC(C)N(C(=O)c1cc(C(C)=O)c(C)nc1C)C(C)CC` (stereo not drawn), the “% Inhibition” value amounted to 4% and the Z score is recorded as -0.68.
In the same order, the values of `COc1ccc([C@H](C)NC(=O)C(=O)Nc2cc(C)on2)c(OC)c1` are 4% and -0.5.
Taken in the same sequence, the figures for `COCc1nc(C)cc(N[C@H]2CCCC[C@@H]2OC)n1` were 16% and -1.99.
Taken in the same sequence, the figures for `CCOC(=O)CCn1cnc(-c2ccccc2)c1-c1cccc2nonc12` were -7% and 1.38.
For the molecule `CN1C(=O)C2(CCN(C(=O)c3cnccn3)CC2)c2ccccc21`, the “% Inhibition” value is 4% and the Z score is recorded as -0.77.
In the same order, the values of `CCCN1CCN(c2ncc3c(n2)CCN(Cc2ccc4c(c2)OCCO4)C3)CC1` are 11% and -1.56.
In the same order, the values of `C[C@]1(O)CCN(C(=O)C(F)(F)c2ccccn2)C1` are -10% and 1.46.
In the case of `CN(C)c1cncc(O[C@H]2CCN(C(=O)NCc3ccc4c(c3)OCO4)C2)n1`, the “% Inhibition” value is recorded as -5% and the Z score is given as 0.54.
Taken in the same sequence, the figures for `O=C(Cc1cnn(-c2ccccc2)c1)N[C@H]1CCN(c2ncccc2Cl)C1` were -4% and 0.42.
Taken in the same sequence, the figures for `COc1ccnc(N(C)Cc2ccc(N)nc2)n1` were 2% and -0.35.
In the same order, the values of `COc1nc(N2CCN(c3cccc(C(F)(F)F)c3)CC2)ncc1C(=O)NCCCN1CCOCC1` are -17% and 1.61.
For the molecule `Cc1coc(-c2cc(NCc3c[nH]nc3-c3cccnc3)ccc2C)n1`, the “% Inhibition” value stood at 0% and the Z score was -0.04.
In the same order, the values of `CCOC(=O)c1cn(CC)c2cc(NC3CCCCC3)c(F)cc2c1=O` are 67% and -12.03.
In the same order, the values of `Cc1ccc(CC(=O)NCC(C)(C)C(N)=O)s1` are -3% and 0.55.
Taken in the same sequence, the figures for `Cc1cc(-c2nc3ncccc3o2)ccc1NC(=O)c1cccc2c(Br)cccc12` were -12% and 1.35.
With `COCCn1c(Cc2nc(C)cs2)nnc1N1CC2(CCC2)OC[C@@H]1C`, the “% Inhibition” value stood at 2% and the Z score is on record as -0.35.
Consider `COc1ccc2c(c1)CCc1c(C(=O)N3CCN(c4ccccn4)CC3)n[nH]c1-2`, for which the “% Inhibition” value was -1% and the Z score is 0.15.
In the same order, the values of `CN(C)c1nc(N)nc(CN2CCOc3ccc(F)cc32)n1` are 39% and -5.3.
In the same order, the values of `Cc1c(C(=O)N2CCC(CCN3CCCC[C@@H]3C)CC2)nnn1-c1cccc2cccnc12` are -2% and 0.27.
In the same order, the values of `CC1CCC(N(C(=O)c2cc(C3CC3)[nH]n2)C2CC2)CC1` (stereo not drawn) are -5% and 0.76.
As to `O=C(N[C@H](c1ccccc1)c1nc2ccccc2[nH]1)c1cc(=O)[nH]c2ccccc12`, the “% Inhibition” value is -13% and the Z score came out at 1.59.
In the same order, the values of `CCC(CC)(CNC(=O)OC(C)(C)C)NC(=O)Cn1cc(C)cn1` are -16% and 2.49.
In the same order, the values of `O=C(c1cn(CCc2ccccc2)nn1)N1CCC[C@H](OCc2ccccc2)C1` are -1% and 0.09.
Taken in the same sequence, the figures for `c1cncc(-c2cccc(CNC3CC3)c2)c1` were -1% and 0.15.
With `Cn1cncc1CCC(=O)Nc1ccnn1[C@H]1CCCc2ccccc21`, the “% Inhibition” value is 5% and the Z score was -0.57.
In the same order, the values of `CCOc1ccc(C(=O)Nc2nc3cc4c(cc3s2)OCCO4)cn1` are -13% and 1.36.
In the same order, the values of `O=c1cc(-c2ccccc2)nc2n1CCCN2` are -5% and 0.71.
Taken in the same sequence, the figures for `O=C(Cc1ccccc1)N1N=C2CCCCC2C1(O)C(F)(F)F` (stereo not drawn) were 0% and -0.07.
Take `O=S(=O)(Cc1ccc(C(F)F)cc1)Cc1nc(C2CC2)n[nH]1`: the “% Inhibition” value was -19% and the Z score is given as 2.24.
With `COc1cnc(N(C)C(=O)C2CCC(F)(F)CC2)nc1`, the “% Inhibition” value is -6% and the Z score was 0.65.
Taken in the same sequence, the figures for `O=C(C[C@H]1CCCN1C(=O)c1cncc(O)c1)c1ccc(F)cc1` were 2% and -0.22.
Taken in the same sequence, the figures for `COc1cc(Cl)c(CN2CCC[C@H](CCC(=O)N3CCOCC3)C2)cc1OC` were -3% and 0.46.
In the same order, the values of `CN(CCC(=O)N1C[C@@H]2CC[C@H]1CN(c1ncccn1)C2)S(C)(=O)=O` are 9% and -1.26.
Take `Cc1cccc(Cn2nc(C)cc2NC(=O)Cc2nonc2C)c1`: the “% Inhibition” value is on record as -4% and the Z score is reported as 0.84.
Taken in the same sequence, the figures for `O=C(Nc1cc(C2CC2)nn1[C@H]1CCS(=O)(=O)C1)c1cscn1` were 9% and -1.28.
In the same order, the values of `Cn1cccc(C(=O)N2CCN(C(=O)c3cc4n(n3)CCCC4)CC2)c1=O` are -7% and 1.02.
Taken in the same sequence, the figures for `Cc1ccc([C@H](C)NC(=O)c2ncccc2C)nc1` were 3% and -0.47.
As for `O=C(Cn1c([C@H](Cc2ccccc2)NC(=O)c2ccccc2)nc2ccccc21)c1ccccc1`, the “% Inhibition” value is listed as -5% and the Z score turned out to be 0.56.
Taken in the same sequence, the figures for `Cc1c(CC(=O)N(CC2CCC2)c2ccccc2)cnn1C` were -11% and 1.15.
`O=C(OCc1ccccn1)C1CCN(S(=O)(=O)c2ccc(Cl)cc2)CC1`: the “% Inhibition” value is -11% and the Z score is listed as 1.4.
Taken in the same sequence, the figures for `Cc1cc(C(=O)N[C@@H]2COC(C)(C)C2)n(C2CCOCC2)n1` were 3% and -0.34.
In the same order, the values of `CCc1nc(CN2C(=O)COc3ccc(S(=O)(=O)N4CCC(Cc5ccccc5)CC4)cc32)no1` are 2% and -0.4.
Taken in the same sequence, the figures for `O=S(=O)(Nc1cnc(N2CCCC2)nc1)c1ccccc1Cl` were -10% and 1.84.
On to `CNc1ccnc(N2CC[C@@]3(CCCN(Cc4ccc(F)c(F)c4)C3)C2)n1`, for which the “% Inhibition” value is listed as 1% and the Z score is on record as -0.2.
In the same order, the values of `CC(C)CC(=O)N1CCC[C@H](c2nc(-c3ccccc3)c[nH]2)C1` are -4% and 0.67.
Consider `CCCc1nc(CNc2ncnc3sc(C(=O)O)c(C)c23)cs1`, for which the “% Inhibition” value is -4% and the Z score amounted to 0.66.
In the same order, the values of `CN(Cc1cnc(NCc2ccccc2)nc1)[C@@H]1CCCC[C@@H]1O` are 14% and -1.96.
Taken in the same sequence, the figures for `CC(C)c1nsc(NCCc2cncn2C)n1` were -1% and 0.08.
Taken in the same sequence, the figures for `CNCc1cc(C)n(-c2cc(S(=O)(=O)N3CCOCC3)ccc2N2CCCC2)c1C` were -1% and 0.09.
Turning to `CO/C(=N/C(=O)c1ccc(Cl)c(Cl)c1)NCCCc1ccccc1`, the “% Inhibition” value is listed as 5% and the Z score is -0.74.
Taken in the same sequence, the figures for `C#CCCN1CCC(NC(=O)c2cc(C3CC3)nc3ccccc23)CC1` were -8% and 0.76.
With `O=C(c1cnc[nH]1)N1CCN(c2c(F)cccc2F)CC1`, the “% Inhibition” value was 0% and the Z score was determined as 0.05.
Regarding `COCC(=O)N1CCCN(C(=O)c2cccc(-c3ccccc3O)c2)CC1`, the “% Inhibition” value is -6% and the Z score amounted to 1.12.
Taken in the same sequence, the figures for `CCc1nc(C(C)C)ccc1C(=O)N(C)Cc1cnccn1` were -12% and 1.4.
Taken in the same sequence, the figures for `CCn1ncc(Cl)c1C(=O)N1CC[C@@H]2OCc3cnnn3[C@@H]2C1` were -11% and 2.15.
`Cc1ccc(C(=O)N2CCN(C(=O)c3cc4ccsc4n3Cc3cccc(F)c3)C[C@@H]2C)cc1`: the “% Inhibition” value is on record as -8% and the Z score is on record as 1.16.
For the molecule `CC[C@@H]1NC(=O)N(Cc2ccc(-c3ccc(OC)cc3)s2)C1=O`, the “% Inhibition” value was determined as 3% and the Z score is -0.49.
In the same order, the values of `CCn1cc(CN(CC(C)C)C(=O)c2ccccc2C#N)cn1` are -14% and 1.8.
In the same order, the values of `O=C([C@@H]1Cc2ccccc2N1)N1CCC(CO)CC1` are 2% and -0.29.
On to `Cc1nc(N2CCN(C[C@H](O)C3CC3)CC2)c(Cl)cc1C#N`, for which the “% Inhibition” value is recorded as -2% and the Z score was 0.37.
Consider `CC(C)C[C@H](CN)CC(=O)OCCc1ccccc1`, for which the “% Inhibition” value is -8% and the Z score came to 0.64.
Taken in the same sequence, the figures for `N#CC1(C(=O)N[C@H]2CN(CC(N)=O)C[C@@H]2c2ccccc2)CCOCC1` were -5% and 0.7.
Taken in the same sequence, the figures for `C#CCNS(=O)(=O)c1c(N)noc1C` were -2% and 0.26.
Taken in the same sequence, the figures for `O=C(Nc1ccc(OC(F)(F)F)cc1)N1CC[C@H](c2nc3ccccc3o2)C1` were -3% and 0.49.
Consider `Cc1ocnc1C(=O)N(CC1CCCCC1)c1ccccn1`, for which the “% Inhibition” value is -1% and the Z score was 0.19.
In the same order, the values of `Cc1cccn2c(O)c(C(=O)NCCO)c(=O)nc12` are 1% and -0.1.
For `COc1ccccc1OCC[C@H]1CCN(C(=O)CCC2CCCC2)C1`, the “% Inhibition” value is listed as -7% and the Z score is recorded as 1.37.
As for `CC(C)[C@H](NC(=O)c1cnn(CCF)c1)C1(CO)CCCC1`, the “% Inhibition” value is 8% and the Z score was -1.57.
As for `Cc1noc(C)c1S(=O)(=O)N1CC[C@H](c2noc(-c3ccccn3)n2)C1`, the “% Inhibition” value is -14% and the Z score stood at 1.77.
Take `COc1ccc(CCC(=O)N2CCC[C@H](c3nnn[nH]3)C2)cc1`: the “% Inhibition” value is -6% and the Z score was 0.91.
Taken in the same sequence, the figures for `Cc1ccc([C@@H]2CC(c3cccc(C)c3)=NN2C(=O)CN2CCOCC2)cc1` were -7% and 0.88.
Taken in the same sequence, the figures for `CCC(C)NC(=O)C1CCC(c2cccc(C(F)(F)F)c2)N(C(C)=O)C1` (stereo not drawn) were -11% and 1.58.
Turning to `COCc1ccc(NC(=O)N[C@H]2CCO[C@@H]2c2cnn(C(C)C)c2)cc1C#N`, the “% Inhibition” value is given as -22% and the Z score was determined as 3.31.
For the molecule `COc1cccc(-c2cnn(CC3CC3)c2)c1OC`, the “% Inhibition” value is recorded as 0% and the Z score is -0.02.
Taken in the same sequence, the figures for `Cn1cc(CNCc2ccc(N3CCCC[C@@H]3CCO)nc2)cn1` were -3% and 0.49.
In the same order, the values of `CC(C)N(CCC(=O)O)Cc1ccccc1F` are 2% and -0.26.
In the same order, the values of `Cn1ncc2c(=O)n(Cc3csc(Cc4ccc(Cl)cc4)n3)nnc21` are -5% and 1.02.
Consider `Cc1oc(-c2ccccc2NC(=O)CCOc2ccccc2)nc1CNC(=O)c1cc(C(C)C)n[nH]1`, for which the “% Inhibition” value is reported as -5% and the Z score is recorded as 0.89.
In the same order, the values of `CC(C)=CCN1CC2(CCN(C(=O)c3cnccc3C)CC2)CC1=O` are -9% and 0.85.
Taken in the same sequence, the figures for `Cc1ccc(F)cc1NS(=O)(=O)c1cc(-c2ccnn2C(C)C)cs1` were -7% and 0.85.
In the same order, the values of `CN1CCN(C(=O)c2cscc2-c2ccccc2)CC1=O` are -12% and 1.52.
As to `O=C(C[C@H]1CCCN(c2cn[nH]c(=O)c2)C1)Nc1ccc(F)cc1F`, the “% Inhibition” value was -13% and the Z score was found to be 1.65.
As for `Cc1ccc(NC(=O)Cc2c(C)noc2C)nc1`, the “% Inhibition” value was 1% and the Z score is listed as -0.16.
Taken in the same sequence, the figures for `CCOC(=O)[C@@]1(C(C)C)CCN(C(=O)c2c[nH]nc2C2CC2)C1` were 3% and -0.36.
